# The inconclusive results got no clear call from the source; some entries with a clear call stand among them for comparison. Entries that show only a call come without a potency. For some of these results: A potency beside an inconclusive call is a rough fit, not a confirmed value. Activity calls are given as the source filed them. Unless noted, the call rests on the fitted dose curve.
# Tests used:
# [1] = qHTS assay for small molecule agonists of the antioxidant response element (ARE) signaling pathway (AID 743202; active means well fitted activation curve with a large enough effect in the signal ratio in the repeat runs, not every such curve was filed as active; inconclusive means weak or mixed curves, or effect the other way; inactive means no such curve, though single readings can be large or run the other way; the % refers to the signal ratio); settings: HepG2 ARE-bla reporter, beta-lactamase FRET, 16 h; activation: at 73.3 µM (top of the series) unless noted
# Summary of the method: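 Steps: seed ARE-bla HepG2 cells (2,000/well); incubate 5 h at 37 C; add compounds by pin tool; incubate 16 h at 37 C; add FRET substrate; read fluorescence after 2 h at RT.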
# [2] = qHTS assay to identify small molecule antagonists of the peroxisome proliferator-activated receptor delta (PPARd) signaling pathway - cell viability counter screen (AID 743213; active means well fitted curve in the direction sought with a large enough effect in the repeat runs; inconclusive means weak or mixed curves; inactive means no such curve, though single readings can be large; an effect the other way counts as inactive or inconclusive; further: nearly all actives have a fitted effect of over 50% in size); settings: PPARd-bla HEK293H viability, CellTiter-Glo luminescence, 17 h; viability change, negative = cytotoxic: at 62 µM (top of the series) unless noted
# Summary of the method: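 PPARd-bla HEK293H cells (3000/well) got compound plus 300 nM L165041 agonist for 17 h at 37 C. Viability in the same wells came from CellTiter-Glo luminescence after 30 min at room temperature.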
# [3] = qHTS assay to identify small molecule antagonists of the vitamin D receptor (VDR) signaling pathway - cell viability counter screen (AID 743225; active means well fitted curve in the direction sought with a large enough effect in the repeat runs; inconclusive means weak or mixed curves; inactive means no such curve, though single readings can be large; an effect the other way counts as inactive or inconclusive; further: nearly all actives have a fitted effect of over 50% in size); settings: VDR-bla HEK293T viability, CellTiter-Glo luminescence, 16 h; viability change, negative = cytotoxic: at 61 µM (top of the series) unless noted
# Summary of the method: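 In this counter screen, VDR-bla HEK 293T cells receive test compound plus 3 nM final calcitriol for 16 h at 37C. Room-temperature steps of 2 h with the beta-lactamase substrate, then 30 min with CellTiter-Glo, precede the luminescence read.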
# [4] = qHTS assay to identify small molecule agonists of the AP-1 signaling pathway (AID 1159526); settings: ME-180 (cervical carcinoma) AP-1-bla reporter, beta-lactamase FRET ratio, 5 h; activation: at 76.8 µM (top of the series) unless noted
# [5] = target: Bile acid receptor (Homo sapiens) (UniProt Q96RI1); assay: qHTS assay to identify small molecule antagonists of the farnesoid-X-receptor (FXR) signaling pathway (AID 743217; active means well fitted inhibition curve with a large enough effect in the signal ratio in the repeat runs, not every such curve was filed as active; inconclusive means weak or mixed curves, or effect the other way; inactive means no such curve, though single readings can be large or run the other way; the % refers to the signal ratio); settings: HEK293T FXR-UAS-bla, beta-lactamase ratio, CDCA-stimulated, 16 h; activity change, negative = inhibition: at 62.6 µM (top of the series) unless noted
# Summary of the method: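 Test compounds are pin-transferred onto FXR-bla HEK 293T cells, then chenodeoxycholic acid is added at 50 uM final. After 16 h at 37 °C, LiveBLAzer B/G substrate is applied for 2 h at room temperature and fluorescence read.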
# [6] = qHTS assay to identify small molecule agonists of the farnesoid-X-receptor (FXR) signaling pathway - cell viability counter screen (AID 743218; active means well fitted curve in the direction sought with a large enough effect in the repeat runs; inconclusive means weak or mixed curves; inactive means no such curve, though single readings can be large; an effect the other way counts as inactive or inconclusive; further: nearly all actives have a fitted effect of over 45% in size); settings: FXR-bla HEK293T viability, CellTiter-Glo luminescence, 16 h; viability change, negative = cytotoxic: at 62.6 µM (top of the series) unless noted
# Summary of the method: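 Quantitative HTS counter screen measuring ATP-based viability via CellTiter-Glo luminescence in HEK 293T cells carrying a UAS-driven beta-lactamase reporter, after 16 h compound exposure at 37 C.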
# [7] = target: Peroxisome proliferator-activated receptor delta (Homo sapiens) (UniProt Q03181); assay: qHTS assay to identify small molecule antagonists of the peroxisome proliferator-activated receptor delta (PPARd) signaling pathway (AID 743215; active means well fitted inhibition curve with a large enough effect in the signal ratio in the repeat runs, not every such curve was filed as active; inconclusive means weak or mixed curves, or effect the other way; inactive means no such curve, though single readings can be large or run the other way; the % refers to the signal ratio;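 further: cells stimulated with agonist L165041 at 300 nM final during compound exposure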); settings: HEK293H PPARd-UAS-bla, beta-lactamase FRET ratio, antagonist, 17 h; ratio activity, negative = inhibition: at 62 µM (top of the series) unless noted
# Summary of the method: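 Here, a reporter line (HEK293H, beta-lactamase under a UAS) measures PPARd signaling. Compounds are tested against agonist L165041 at 300 nM final concentration over 17 h at 37 C, with fluorescence read after substrate.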
# [8] = qHTS assay to identify small molecule agonists of the vitamin D receptor (VDR) signaling pathway - cell viability counter screen (AID 743224; active means well fitted curve in the direction sought with a large enough effect in the repeat runs; inconclusive means weak or mixed curves; inactive means no such curve, though single readings can be large; an effect the other way counts as inactive or inconclusive; further: nearly all actives have a fitted effect of over 50% in size); settings: VDR-bla HEK293T viability, CellTiter-Glo luminescence, 16 h; activity change, negative = cytotoxicity: at 62.6 µM (top of the series)
# Summary of the method: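 CellTiter-Glo viability readout on VDR-bla cells, measured after 16 h of compound treatment at 37C in the same wells.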
# [9] = qHTS assay to identify small molecule antagonists of the farnesoid-X-receptor (FXR) signaling pathway - cell viability counter screen (AID 743221; active means well fitted cell-killing curve with a large enough effect in the repeat runs, not every such curve was filed as active; inconclusive means weak or mixed curves, or effect the other way; inactive means no such curve, though single readings can be large or run the other way; further: nearly all actives have a fitted effect of over 50% in size); settings: FXR-bla HEK293T viability, CellTiter-Glo luminescence, 16 h; activity change, negative = cytotoxicity: at 62.6 µM (top of the series) unless noted
# Summary of the method: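 Compound effects on cell number were measured as CellTiter-Glo luminescence in HEK 293T cells expressing FXR-UAS-bla, after 16 h at 37 C with 50 uM CDCA (final).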
# [10] = target: Bile acid receptor (Homo sapiens) (UniProt Q96RI1); assay: qHTS assay to identify small molecule agonists of the farnesoid-X-receptor (FXR) signaling pathway (AID 743220; active means well fitted activation curve with a large enough effect in the signal ratio in the repeat runs, not every such curve was filed as active; inconclusive means weak or mixed curves, or effect the other way; the % refers to the signal ratio); settings: HEK293T FXR-UAS-bla, beta-lactamase FRET ratio, 16 h; activation: at 62.6 µM (top of the series)
# Summary of the method: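 FXR-UAS-bla HEK 293T cells carrying a UAS-driven beta-lactamase reporter were plated for 5 h at 37C/5% CO2, then exposed to DMSO-dissolved Tox21 10K compounds for 16 h at 37C. A LiveBLAzer B/G FRET substrate was loaded for 2 h at room temperature before fluorescence reading.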
# [11] = target: Vitamin D3 receptor (Homo sapiens) (UniProt P11473); assay: qHTS assay to identify small molecule antagonists of the vitamin D receptor (VDR) signaling pathway (AID 743223; active means well fitted inhibition curve with a large enough effect in the signal ratio in the repeat runs, not every such curve was filed as active; inconclusive means weak or mixed curves, or effect the other way; inactive means no such curve, though single readings can be large or run the other way; the % refers to the signal ratio); settings: VDR-UAS-bla HEK293T, beta-lactamase FRET ratio, 16 h; activity change, negative = inhibition: at 61 µM (top of the series) unless noted
# Summary of the method: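 Beta-lactamase activity in VDR-bla cells is measured by FRET substrate fluorescence (2 h, room temperature) after cells spend 16 h at 37C with test compound and 3 nM final 1alpha,25-dihydroxyvitamin D3.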
# [12] = target: Peroxisome proliferator-activated receptor delta (Homo sapiens) (UniProt Q03181); assay: qHTS assay to identify small molecule agonists of the peroxisome proliferator-activated receptor delta (PPARd) signaling pathway (AID 743212); settings: HEK293H PPARd-UAS-bla, beta-lactamase FRET ratio, 17 h; activation: at 62.6 µM (top of the series) unless noted
# Summary of the method: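 Cells expressing a UAS-driven beta-lactamase reporter (PPARd-bla HEK293H) were given test compounds after a 5 h settle and kept at 37 C. Reporter activity was then measured as FRET fluorescence using LiveBLAzer B/G substrate.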
# [13] = target: Vitamin D3 receptor (Homo sapiens) (UniProt P11473); assay: qHTS assay to identify small molecule agonists of the vitamin D receptor (VDR) signaling pathway (AID 743222); settings: HEK293T VDR-UAS-bla, beta-lactamase FRET ratio, 16 h; activation: at 63.5 µM (top of the series) unless noted
# Summary of the method: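 Tox21 cell reporter format: VDR-bla line, 16 h compound exposure in 5% CO2 at 37C, then fluorescence intensity after 2 h with LiveBLAzer B/G FRET substrate.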
# Potency means the concentration at half of the fitted maximal effect; tags describe the fitted curve by direction and shape or compound fluorescence and quenching.
# UniProt Q03181, sequence (Q03181 whole entry, looked up): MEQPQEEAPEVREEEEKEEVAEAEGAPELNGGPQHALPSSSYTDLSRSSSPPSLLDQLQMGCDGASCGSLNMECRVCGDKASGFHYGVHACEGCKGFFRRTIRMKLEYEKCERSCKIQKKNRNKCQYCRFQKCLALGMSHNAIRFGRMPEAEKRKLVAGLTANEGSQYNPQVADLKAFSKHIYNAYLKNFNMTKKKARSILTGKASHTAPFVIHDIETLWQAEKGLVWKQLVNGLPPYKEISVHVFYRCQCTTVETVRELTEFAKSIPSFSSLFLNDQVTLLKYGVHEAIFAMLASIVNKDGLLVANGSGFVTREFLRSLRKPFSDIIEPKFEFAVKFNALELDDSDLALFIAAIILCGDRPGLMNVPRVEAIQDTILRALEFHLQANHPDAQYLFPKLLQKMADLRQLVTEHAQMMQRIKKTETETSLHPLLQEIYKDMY
# UniProt Q96RI1, sequence (Q96RI1 whole entry, looked up): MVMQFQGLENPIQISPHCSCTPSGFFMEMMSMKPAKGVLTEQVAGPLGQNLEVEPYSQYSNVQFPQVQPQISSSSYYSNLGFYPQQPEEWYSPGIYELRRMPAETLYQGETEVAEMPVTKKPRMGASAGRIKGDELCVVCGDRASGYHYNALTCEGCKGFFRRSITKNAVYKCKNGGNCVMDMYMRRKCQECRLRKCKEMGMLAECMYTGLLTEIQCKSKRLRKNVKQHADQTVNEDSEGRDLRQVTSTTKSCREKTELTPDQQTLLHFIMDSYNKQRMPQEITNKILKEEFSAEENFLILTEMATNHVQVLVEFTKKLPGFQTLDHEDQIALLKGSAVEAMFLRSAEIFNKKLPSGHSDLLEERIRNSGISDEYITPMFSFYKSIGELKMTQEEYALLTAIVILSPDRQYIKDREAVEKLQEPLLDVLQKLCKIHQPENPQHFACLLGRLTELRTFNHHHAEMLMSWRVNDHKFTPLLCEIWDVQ
# UniProt P11473, sequence (P11473 whole entry, looked up): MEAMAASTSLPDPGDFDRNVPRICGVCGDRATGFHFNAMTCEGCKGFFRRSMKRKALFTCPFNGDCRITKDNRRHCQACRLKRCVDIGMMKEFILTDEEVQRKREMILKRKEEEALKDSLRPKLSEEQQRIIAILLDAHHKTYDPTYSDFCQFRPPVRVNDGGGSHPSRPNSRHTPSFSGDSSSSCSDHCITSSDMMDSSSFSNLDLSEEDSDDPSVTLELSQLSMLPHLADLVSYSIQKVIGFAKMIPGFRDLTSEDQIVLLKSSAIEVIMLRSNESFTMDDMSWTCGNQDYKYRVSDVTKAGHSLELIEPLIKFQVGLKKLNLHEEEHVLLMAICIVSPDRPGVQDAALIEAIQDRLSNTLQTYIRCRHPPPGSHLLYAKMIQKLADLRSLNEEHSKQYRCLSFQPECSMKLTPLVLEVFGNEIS
smiles,measurement,setting,value
CC(=O)OC/C=C(\C)CCC=C(C)C,Potency,[1],inactive
same,Potency,[2],inactive
same,Potency,[3],"inconclusive: 5.49 µM [cytotoxic, single point]"
same,Potency,[4],inactive
CC(=O)N(CC(=O)N(C)C)c1ccccc1,activation,[1],inconclusive: -6.79%
same,"activity change, negative = inhibition",[5],inconclusive: -20.5%
same,Potency,[6],"inconclusive: 0.335 µM [rising, partial curve]"
same,Potency,[4],"inconclusive: 3.01 µM [activator, full curve, poor fit]"
[O-][N+](=Nc1ccccc1)c1ccccc1,Potency,[1],active: 6.86 µM
same,Potency,[2],inactive
same,Potency,[7],"inconclusive: 61.7 µM [rising, partial curve, poor fit]"
same,Potency,[6],inactive
same,Potency,[8],inactive
same,Potency,[4],inactive
CCc1ccc(O)c(OC)c1,Potency,[1],inactive
same,Potency,[7],inactive
same,Potency,[5],inactive
same,Potency,[4],inactive
Cc1ccc(S(=O)(=O)NC(=O)NC2CCCC2)cc1,Potency,[1],inactive
same,"ratio activity, negative = inhibition",[7],inconclusive: 8.47%
same,Potency,[9],inactive
same,activation,[4],inconclusive: 2.8% [at 35.3 µM]
CCN(CC)CCNc1ccc(CNC=O)c2sc3ccc(OC)cc3c(=O)c12,Potency,[1],"inconclusive: 34.4 µM [falling, single point]"
same,Potency,[2],"inconclusive: 5.49 µM [cytotoxic, partial curve]"
same,Potency,[7],active: 15.5 µM
same,Potency,[5],"inconclusive: 61.6 µM [rising, partial curve, poor fit]"
same,Potency,[6],active: 4.9 µM
same,Potency,[10],active: 6.92 µM
same,Potency,[9],"inconclusive: 0.347 µM [falling, full curve, poor fit]"
same,Potency,[11],"inconclusive: 43.6 µM [rising, partial curve]"
same,Potency,[8],active: 54.9 µM
same,Potency,[3],active: 43.6 µM
same,Potency,[4],inactive
O=C(O)C1=NN(c2ccc(S(=O)(=O)O)cc2)C(=O)C1,Potency,[1],inactive
same,Potency,[6],inactive
same,Potency,[4],"inconclusive: 69.2 µM [inhibitor, partial curve]"
O=C(c1ccco1)N1CCNCC1,Potency,[1],inactive
same,Potency,[2],inactive
same,activation,[4],inconclusive: -3.03% [at 35.3 µM]
CC(=O)Nc1ccc(OC(=O)c2ccccc2OC(C)=O)cc1,activation,[1],inconclusive: 22.6%
same,Potency,[7],inactive
same,Potency,[4],inactive
CO/N=C(/C(=O)N[C@@H]1C(=O)N2C(C(=O)O)=C(Cn3nnc(C)n3)CS[C@H]12)c1csc(N)n1,Potency,[1],inactive
same,Potency,[5],inactive
same,Potency,[4],inactive
C#CCOC(=O)[C@@H](C)Oc1ccc(Oc2ncc(Cl)cc2F)cc1,activation,[1],inconclusive: -21.3%
same,Potency,[7],inactive
same,Potency,[5],inactive
same,Potency,[11],inactive
same,Potency,[4],inactive
OCc1c2ccccc2cc2ccccc12,Potency,[1],"inconclusive: 61.3 µM [rising, partial curve, poor fit]"
same,Potency,[12],"inconclusive: 27.6 µM [rising, partial curve, poor fit]"
same,Potency,[8],"inconclusive: 39 µM [cytotoxic, partial curve]"
same,Potency,[4],"inconclusive: 24.6 µM [activator, partial curve]"
CC(C)SCc1ccco1,Potency,[1],inactive
same,Potency,[2],inactive
same,Potency,[9],"inconclusive: 0.385 µM [falling, full curve, poor fit]"
same,Potency,[4],inactive
CC(C)OC(=O)CCC(=O)OC(C)C,activation,[1],inconclusive: -1.5%
same,Potency,[7],inactive
same,Potency,[4],inactive
COc1cc2c(cc1OC)C(=O)CC2,Potency,[1],inactive
same,Potency,[8],inactive
same,Potency,[4],inactive
CCN1C=CN(C)C1C (stereo not given),Potency,[1],inactive
same,Potency,[9],inactive
same,Potency,[4],inactive
CCC[C@H](N[C@@H](C)C(=O)N1[C@H](C(=O)O)C[C@@H]2CCCC[C@@H]21)C(=O)OCC,Potency,[1],inactive
same,Potency,[13],"inconclusive: 33.5 µM [rising, partial curve, poor fit]"
same,Potency,[4],inactive
O=C(O)Cc1sc(-c2ccccc2)nc1-c1ccc(Cl)cc1,Potency,[1],inactive
same,activation,[13],inconclusive: -9.92%
same,activation,[4],inconclusive: 27% [at 35.3 µM]
O=C(NC1CCN(CCc2c[nH]c3ccccc23)CC1)c1ccccc1,activation,[1],inconclusive: -15%
same,Potency,[8],"inconclusive: 29.8 µM [cytotoxic, partial curve, poor fit]"
same,Potency,[4],"inconclusive: 26.8 µM [activator, single point]"
CCCCCCCCS(=O)(=O)Cl,activation,[1],inconclusive: 18.1% [at 94.8 µM]
same,Potency,[3],"inconclusive: 0.0879 µM [cytotoxic, full curve, poor fit]"
same,Potency,[4],inactive
Cc1cc(CC(=O)O)c(C)n1-c1ccc(Cl)cc1,Potency,[1],inconclusive: 33.5 µM
same,Potency,[8],inactive
same,activation,[4],inconclusive: 19.5% [at 35.3 µM]
CCOC(=O)c1ccc(N(C)C)cc1,activation,[1],inconclusive: -18.5%
same,Potency,[11],inactive
same,Potency,[4],inactive
